Experimental data from paper PMC4336329 (PLoS ONE, 2015).
About 14,000 (4.5%) of roughly 310,000 compounds showed an effect of 50% or more. The effect is printed as a negative number. The list shows a part of the results.

Each molecule was assayed against human ether-à-go-go-related gene (hERG) potassium channel (human, UniProt Q12809) (assay: primary screen, population patch clamp on CHO cells stably expressing hERG).
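Note: peak tail current of the secondary pulse compared with the same well before compound.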

Sequence of human ether-à-go-go-related gene (hERG) potassium channel (Q12809 whole entry, looked up): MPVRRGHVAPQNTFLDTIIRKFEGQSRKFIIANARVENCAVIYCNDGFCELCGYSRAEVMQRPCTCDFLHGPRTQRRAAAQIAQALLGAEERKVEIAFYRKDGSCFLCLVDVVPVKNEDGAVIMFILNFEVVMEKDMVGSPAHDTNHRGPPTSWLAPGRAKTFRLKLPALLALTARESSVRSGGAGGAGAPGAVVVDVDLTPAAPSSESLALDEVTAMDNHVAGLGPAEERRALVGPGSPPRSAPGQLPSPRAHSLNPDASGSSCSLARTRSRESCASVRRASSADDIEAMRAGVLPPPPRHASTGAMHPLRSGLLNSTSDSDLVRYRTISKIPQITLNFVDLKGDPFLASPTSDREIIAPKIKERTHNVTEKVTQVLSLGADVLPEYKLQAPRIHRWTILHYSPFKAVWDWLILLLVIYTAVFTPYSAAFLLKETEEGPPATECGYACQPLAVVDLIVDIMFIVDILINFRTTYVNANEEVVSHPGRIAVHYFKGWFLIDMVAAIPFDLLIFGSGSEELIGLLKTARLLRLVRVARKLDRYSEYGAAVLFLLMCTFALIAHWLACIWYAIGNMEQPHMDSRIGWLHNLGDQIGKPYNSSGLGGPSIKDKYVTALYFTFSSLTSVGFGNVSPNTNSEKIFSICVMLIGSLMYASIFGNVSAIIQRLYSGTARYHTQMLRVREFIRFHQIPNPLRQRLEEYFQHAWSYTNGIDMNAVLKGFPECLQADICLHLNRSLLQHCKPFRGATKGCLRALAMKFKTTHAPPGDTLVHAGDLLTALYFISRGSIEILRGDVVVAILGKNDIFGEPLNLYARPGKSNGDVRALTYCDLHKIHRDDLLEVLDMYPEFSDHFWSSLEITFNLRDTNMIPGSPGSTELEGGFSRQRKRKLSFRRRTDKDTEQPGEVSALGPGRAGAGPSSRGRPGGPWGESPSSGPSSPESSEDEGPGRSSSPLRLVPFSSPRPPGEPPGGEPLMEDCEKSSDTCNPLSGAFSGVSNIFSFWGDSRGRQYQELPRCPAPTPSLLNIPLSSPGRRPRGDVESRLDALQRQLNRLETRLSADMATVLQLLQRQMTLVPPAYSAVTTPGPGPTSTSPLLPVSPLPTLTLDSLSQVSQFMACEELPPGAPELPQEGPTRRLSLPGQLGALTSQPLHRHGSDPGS

Compound	hERG current change (%, negative = inhibition) at 10uM [%]
CN(C)c1ccc(C#Cc2ccc3cc(CCCO)oc(=O)c3c2)cc1	21.3
COC(=O)c1cc(NC(=O)Nc2cc(OC)ccc2OC)cc(C(=O)OC)c1	-10
O=C(O)CCCCCN1C(=O)/C(=C\c2ccncc2)SC1=S	4.79
Cc1nnsc1SCC(=O)O	-0.15
CC1Oc2ccccc2N(CC(=O)N2CCc3ccccc32)C1=O (stereo not drawn)	-9.8
CC(C)C1=C2CCCCC2NC(=O)N1 (stereo not drawn)	1.29
CCc1nnc(NC(=O)C2Cc3ccccc3CN2S(=O)(=O)c2c(C)c(C)cc(C)c2C)s1 (stereo not drawn)	-7.19
CCCN(CC(=O)Nc1ccccc1C)C(=O)c1ccc(Cl)c(S(=O)(=O)N2CCCC2)c1	-4.26
COc1ccc(C(O)(CCC(C)C)C(CN2CCOCC2)c2ccccc2)cc1.Cl (stereo not drawn)	6.32
O=C(O)C(F)(F)C(NCc1ccccc1)c1ccccc1 (stereo not drawn)	6.62
CCc1cccc(C)c1NC(=O)CC1Oc2ccc(C)cc2NC1=O (stereo not drawn)	17.6
COc1cccc(N2CC(C(=O)NC3CCCCC3)CC2=O)c1 (stereo not drawn)	2.57
O=C1c2cccc3c(N4CCOCC4)c([N+](=O)[O-])cc(c23)C(=O)N1c1cccc2ccccc12	7
Cn1c(=O)n(C)c2cc(C(=O)Nc3ccc(Br)cc3)ccc21	14.5
COc1ccc(C(=O)c2ccc(OC)cc2O)c(O)c1	10.3
COc1ccc(Cn2nnnc2C(c2cc3cccc(C)c3[nH]c2=O)N2CCOCC2)cc1 (stereo not drawn)	-43.6
C=CCn1c(COc2cccc3cccnc23)nnc1SCC(=O)OC	13.6
COc1cccc(-c2nc3n(n2)C(c2ccc4c(c2)OCO4)C(C(N)=O)=C(C)N3)c1 (stereo not drawn)	1.05
C=CCn1c(SCc2csc(C)n2)nc2sc3c(c2c1=O)CCCC3	1.15
CC(=O)c1ccc(N2CCN(C(=O)C(=O)c3c(C)[nH]c4ccccc34)CC2)cc1	-42.4
CC(=O)c1cccc(CN2CCC(C(=O)Nc3ccc(-c4cccc(C)c4)cc3)CC2)c1	2.59
CC(=O)c1cccc(NC(=O)C(C)OC(=O)C2CCC2)c1 (stereo not drawn)	18.2
CCCCn1c(N)c(N(CC(C)C)C(=O)C2CC(=O)N(CCc3ccccc3)C2)c(=O)[nH]c1=O (stereo not drawn)	7.09
CCN1CCN(C(c2ccc(F)cc2)c2nnnn2Cc2ccc3c(c2)OCO3)CC1.Cl (stereo not drawn)	-44
